Potency data for one compound are collected here from PubChem BioAssay (NCATS).

The assay concerns Zika virus NS2B-NS3 protease (linked construct). Briefly: Primary screen NINDS Rhodamine qHTS for Zika virus inhibitors (AID 1347160). Further: nearly all actives have a fitted effect of over 55% in size. Put shortly: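 Single-chain NS2B-NS3 protease, 25 nM, pH 8.0; compounds preincubated 15 min. Activity: Rhodamine110 release from 1.5 microM substrate over 15 min, room temperature, data fitted to 4-parameter Hill.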
(qHTS replaces the single test concentration by a dilution series.)

Inconclusive results are not listed. The call rests on the fitted dose curve; in most records, active means well fitted inhibition curve with a large enough effect; inconclusive means small, poorly fitted or top-dose-only effect; inactive means no such curve, though single readings can be large or run the other way. More than one record can exist for a structure, and the calls need not agree. Not every entry of the source has a single result; some have several. The other results are left out here. The source may hold further records. The values listed for one entry are repeated measurements across runs, samples, wells, individuals or studies. Brackets tell where a record comes from. Letters hold for one entry only.
Potency means the concentration at half of the fitted maximal effect.

In the case of `CC(=O)O[C@H]1C[C@@]2(C)[C@@H](CC[C@H]3[C@@]4(C)C=CC(=O)[C@@H](C)[C@@H]4[C@H](OC(C)=O)C(=O)[C@@]32C)/C1=C(\CCC=C(C)C)C(=O)O`, the Potency entry is “inactive [sample A] and active: 17.5 µM [sample B]”.
